# Structures can show the parent of a compound that is named as a salt. Over roughly 2,800 compounds, “cell viability relative to vehicle” has its median near 0.98; the lowest 2% begin near 0.45. Some of the results follow.
# System: NCI-H2228 alectinib-DTP
# Assay: cell viability relative to vehicle (fraction of vehicle); NCI-H2228 is an ALK-positive lung cancer line and DTP means drug-tolerant persister; higher = less growth inhibition
# Details: 100 nM; treatment time 6 days
# Procedure, shortened: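 Parental NCI-H2228 cells and drug-tolerant persister cells (made with 1000 nM of a targeted drug for 13 days) were seeded in 384-well plates. The next day, the 3114-agent TargetMol anti-cancer compound library was added at 100 nM, with DMSO as vehicle. After 6 days, ATP was read with the CellTiter-Glo 3D Cell Viability Assay. Each value is cell viability relative to vehicle-treated cells.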
row,Structure (SMILES),cell viability
1,CC(C)(C)c1ccc(C(=O)CCCN2CCC(OC(c3ccccc3)c3ccccc3)CC2)cc1 [Ebastine],0.96
2,COc1cc(/C=C2/SC(=S)NC2=O)ccc1OCC(=O)O,0.991
3,O=c1ccn([C@@H]2O[C@H](CO)[C@@H](O)[C@H]2O)c(=O)[nH]1 [Uridine],0.771
4,CC(C)n1c(/C=C/C(O)CC(O)CC(=O)O)c(-c2ccc(F)cc2)c2ccccc21 (stereo unspecified) [Fluvastatin sodium salt],0.869
5,O=c1c(O[C@@H]2O[C@H](CO)[C@@H](O)[C@H](O)[C@H]2O)c(-c2ccc(O)c(O)c2)oc2cc(O)cc(O)c12 [Isoquercitrin],1.13
6,O=c1c(O[C@@H]2O[C@H](CO)[C@@H](O)[C@H](O)[C@H]2O)c(-c2ccc(O)c(O)c2)oc2cc(O)cc(O)c12,0.978
7,N#CC(c1ccnc(OCc2ccc(CN3CCOCC3)cc2)n1)c1nc2ccccc2s1 (stereo unspecified),0.973
8,C[C@H](CC(=O)C[C@@H](C)[C@H]1C[C@H](O)[C@@]2(C)C3=C(C(=O)C[C@]12C)[C@@]1(C)CCC(=O)C(C)(C)[C@@H]1C[C@@H]3O)C(=O)O [Ganoderic acid A],1.03
9,COc1nnc2ccc(N3CCC(c4ccc(OCCN5CCN(C)C(=O)[C@H]5C)cc4)CC3)nn12.O=C(O)c1ccc2cc(O)ccc2c1 [AZD5153 6-Hydroxy-2-naphthoic acid],0.737
10,CCOC(=O)[C@H](CCc1ccccc1)N[C@@H](C)C(=O)N(CC(=O)O)C1Cc2ccccc2C1 [Delapril Hydrochloride],1.14
11,OC(CCN1CCCCC1)(c1ccccc1)C1CCCCC1 (racemic) [DL-trihexyphenidyl hydrochloride],0.964
12,C[C@H](Cn1cnc2c(N)ncnc21)OCP(=O)(O)O [Tenofovir],1.05
13,N#CC(=Cc1cc(Cl)cc(Cl)c1)c1cccnc1,0.973
14,COC(=O)Nc1ccc(-c2nc(N3CCOCC3)c3cnn(C4CCN(C(=O)OC)CC4)c3n2)cc1,0.855
15,COC(=O)N[C@H](C(=O)N[C@@H](Cc1ccccc1)[C@@H](O)CN(Cc1ccc(-c2ccccn2)cc1)NC(=O)[C@@H](NC(=O)OC)C(C)(C)C)C(C)(C)C [Atazanavir],0.89
16,N.N.O=C([O-])C[O-].[Pt+2] [Nedaplatin],0.894
17,NCCCC(O)(P(=O)(O)O)P(=O)(O)O [Alendronate sodium hydrate],1
18,Cc1ccnc(NS(=O)(=O)c2ccc(N)cc2)n1 [Sulfamerazine],0.882
19,COc1ccc(C[C@H](N)C(=O)N[C@H]2[C@@H](O)[C@H](n3cnc4c(N(C)C)ncnc43)O[C@@H]2CO)cc1 [Puromycin dihydrochloride],0.945
20,O=C(O)Cc1cccc(OCCCN(Cc2cccc(C(F)(F)F)c2Cl)CC(c2ccccc2)c2ccccc2)c1,0.83
21,Oc1ccccc1N=Cc1c(O)ccc2ccccc12,1.15
22,C[C@]1(c2nc3c(C(N)=O)cccc3[nH]2)CCCN1 [Veliparib dihydrochloride],0.96
23,C[C@]1(c2nc3c(C(N)=O)cccc3[nH]2)CCCN1 [Veliparib],0.89
24,CC(=O)N[C@@H](CS)C(=O)O [Acetylcysteine],1.06
25,O=c1cc(-c2ccccc2)oc2cc(O)c(O)c(O)c12 [Baicalein],0.999
26,CN1CCN(c2ccc(Nc3ncc4cc(C#N)c(=O)n(C5CCCC5)c4n3)cc2)CC1,1.05

row,Structure (SMILES),cell viability
1,CN(C)CCn1nnnc1SCC1=C(C(=O)O)N2C(=O)[C@@H](NC(=O)Cc3csc(N)n3)[C@H]2SC1 [Cefotiam hydrochloride],0.916
2,O=c1[nH]c2cc(C(F)(F)F)ccc2n1-c1cc(C(F)(F)F)ccc1O,1.05
3,COc1cc(C2Oc3cc([C@H]4Oc5cc(O)cc(O)c5C(=O)[C@@H]4O)ccc3OC2CO)ccc1O (stereo partly specified) [Silibinin],1.05
4,C[C@@H](C(=O)Nc1ccc(Cl)cc1)[C@H]1CC[C@@H](c2ccnc3ccc(F)cc32)CC1 [Linrodostat],0.991
5,Cc1c(C)c2c(c(C)c1O)CCC(C)(C(=O)O)O2 (stereo unspecified) [Trolox],0.82
6,COc1ccc(S(=O)(=O)Nc2ccccc2C=Cc2ccncc2)cc1,0.541
7,Cn1ccnc1 [Saccharin 1-methylimidazole (SMI)],1.04
8,CS(=O)(=O)c1ccc(-c2cnc(NCc3ccco3)n3cnnc23)cc1,0.904
9,O=C1CCC[C@@H]2[C@H]3CCC[N+]4([O-])CCC[C@@H](CN12)[C@@H]34 (stereo partly specified) [Oxymatrine],0.953
10,CCn1nc(C2CCN(C(=O)CCO)CC2)nc1-c1cnc(N)c(-c2nnc(C(C)(C)C)o2)n1,1.01
11,C[C@@H]1O[C@@H](OC[C@H]2O[C@@H](Oc3c(-c4ccc(OCCO)c(OCCO)c4)oc4cc(OCCO)cc(O)c4c3=O)[C@H](O)[C@@H](O)[C@@H]2O)[C@H](O)[C@H](O)[C@H]1O [Troxerutin],1.18
12,CC[C@@H](C)c1ccc(NC(=O)Cn2cnc3c2c(=O)n(C)c(=O)n3C)cc1 (racemic),0.874
13,N#Cc1ccc(COC[C@H]2O[C@@H](n3c(NCc4ccc(Cl)c(Cl)c4)nc4c(N)ncnc43)[C@H](O)[C@@H]2O)cc1,0.889
14,C[C@]12C=CC(=O)C=C1CC[C@H]1[C@@H]3C[C@@H](O)[C@](O)(C(=O)CO)[C@@]3(C)C[C@H](O)[C@@]12F [Triamcinolone],0.845
15,CC(=O)O[C@H]1C[C@@H]2CC[C@@H]3[C@H](CC[C@@]4(C)[C@H]3C[C@H]([N+]3(C)CCCCC3)[C@@H]4OC(C)=O)[C@@]2(C)C[C@@H]1N1CCCCC1 [Vecuronium bromide],0.789
16,O=C(O[C@@H]1Cc2c(O)cc(O)cc2O[C@@H]1c1ccc(O)c(O)c1)c1cc(O)c(O)c(O)c1 [(-)-Epicatechin gallate],0.98
17,O=C(NCc1cccc(O)c1)c1cc2cc(F)ccc2[nH]1,0.955
18,Cc1coc2c1C(=O)C(=O)c1c-2ccc2c1CCCC2(C)C [Tanshinone IIA],0.868
19,Cc1cc2c(C(N)=O)cccc2n1-c1nc2c(c(NCc3ccccc3)n1)COCC2,0.923
20,CO/N=C(\C(=O)N[C@@H]1C(=O)N2C(C(=O)[O-])=C(C[N+]3(C)CCCC3)CS[C@H]12)c1csc(N)n1 [Cefepime Dihydrochloride Monohydrate],0.889
21,NCC1CCN(c2nccc(-c3ccc4ccccc4c3)n2)CC1,1
22,CNCCCC12CCC(c3ccccc31)c1ccccc12 [Maprotiline hydrochloride],1.1
23,O=C1Cc2c([nH]c3ccc(Br)cc23)-c2ccccc2N1 [KenPaullone],0.957
24,COc1cccc(C(=O)COc2ccc(CC3SC(=O)NC3=O)cc2)c1 (stereo unspecified),0.911
25,COc1ccc2c(c1)c(CC(=O)N1CCOCC1)c(C)n2C(=O)c1ccc(Cl)cc1,0.891
26,O=C(NCCN1CCOCC1)c1ccc(Cl)cc1 [Moclobemide],1.05

row,Structure (SMILES),cell viability
1,O=C(c1ccc(/C=C/c2n[nH]c3ccccc23)cc1)N1CCNCC1,0.838
2,C/C(=C\C(=O)Nc1ccccc1C(=O)O)c1ccc2ccccc2c1,0.942
3,C[C@H](Cc1cc2c(c(C(N)=O)c1)N(CCCO)CC2)NCCOc1ccccc1OCC(F)(F)F [Silodosin],0.973
4,CN(C)CCOc1ccc(-c2nc(-c3ccncc3)c(-c3ccc4c(c3)CC/C4=N\O)[nH]2)cc1,1.12
5,O=C(O)C1=CO[C@@H](O[C@@H]2O[C@H](CO)[C@@H](O)[C@H](O)[C@H]2O)[C@@H]2C(CO)=CC[C@H]12 [Geniposidic Acid],1.17
6,CCCCCNC(=N)N/N=C/c1c[nH]c2ccc(OC)cc12 [Tegaserod maleate],0.913
7,NS(=O)(=O)c1cc(Cl)c(Cl)c(S(N)(=O)=O)c1 [Dichlorphenamide],1
8,CS(=O)(=O)c1ccc(-c2cnc(N)c(C(=O)Nc3ccccc3)n2)cc1,1.01
9,COc1c(C)c2c(c(O)c1C/C=C(\C)CCC(=O)O)C(=O)OC2 [Mycophenolic acid],1.07
10,O=C(Oc1ccccc1C(=O)O)c1ccccc1O [Sasapyrine],1.03
11,CC(C)(O)c1ccc2c(c1)ncn2-c1cccc(-c2ccccc2C#N)c1,0.923
12,CN1c2ccccc2C(=O)Nc2cnc(Nc3ccc(N4CCC(O)CC4)cc3)nc21,0.863
13,O=C(O)CCCCC(CCSCc1ccccc1)SCc1ccccc1 (stereo unspecified),1.03
14,CC1(C)CC[C@]2(C(=O)O)CC[C@]3(C)C(=CC[C@@H]4[C@@]5(C)CC[C@H](O)C(C)(C)[C@@H]5CC[C@]43C)[C@@H]2C1 [Oleanolic Acid],1.15
15,O=c1c(-c2ccc(O)cc2)coc2cc(O)ccc12 [Daidzein],1.18
16,Cc1cc(Nc2cc(N)ncn2)c(=O)n2c1C(=O)NC21CCCCC1,0.907
17,CC(C)(C)c1nc(-c2cccc(NS(=O)(=O)c3c(F)cccc3F)c2F)c(-c2ccnc(N)n2)s1 [Dabrafenib],1.02
18,C[C@H]1O[C@@H](n2cc(F)c(=O)[nH]c2=O)[C@H](O)[C@@H]1O [Doxifluridine],0.809
19,Nc1c(CC(=O)O)cccc1C(=O)c1ccc(Br)cc1 [Bromfenac sodium],0.888
20,COc1cc2c(cc1OCCCN1CCCC1)N=C(N)C21CCC1,1.02
21,CN(C/C=C/c1ccccc1)Cc1cccc2ccccc12 [Naftifine hydrochloride],0.898
22,CC(C)CN(CC(=O)N1CCN(CC(OCc2ccc3ccccc3c2)c2ccc(Cl)cc2Cl)CC1)CC(C)C (stereo unspecified),1.12
23,Cn1nccc1Nc1nccc(-c2cc3c(s2)C(C)(C)N(CCN2CCOCC2)C3=O)n1,1.06
24,CC(=O)CCCCn1c(=O)c2c(ncn2C)n(C)c1=O [Pentoxifylline],1.22
